# Test results published in PubChem BioAssay AID651597 (National Center for Advancing Translational Sciences (NCATS), 2012).
# Hit rate of the full screen: of about 1,100 compounds, about 390 (35%) were called active. This list was built around the results that the source calls inconclusive (neither active nor inactive); the mix of calls is not that of the screen. The call rests on the fitted dose curve; in most records, active means well fitted inhibition curve with a large enough effect; inconclusive means small, poorly fitted or top-dose-only effect; inactive means flat fitted curve, though single readings scatter. A potency beside an inconclusive call is a rough fit, not a confirmed value.
# Molecular target: Luciferin 4-monooxygenase (Photinus pyralis) (UniProt P08659)
# Experiment: qHTS of Nrf2 Activators: Hit Validation in Secondary FLuc Assay; further: nearly all actives have a fitted effect of over 65% in size
# Details: firefly luciferase inhibition counter-screen, luminescence; series mostly up to 57.5 µM; activity, negative = inhibition: at the top concentration
# Summary of the method: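 Counter-screen on purified firefly luciferase with ATP and D-luciferin at Km concentrations; compounds flagged if they inhibit the enzyme, indicating possible reporter stabilization rather than ARE activation.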
# On the % scale 0 is the no-effect control and ±100 the full control effect; potency means the concentration at half of the fitted maximal effect; tags describe the fitted curve by direction and shape.
SMILES,Potency,"activity, negative = inhibition"
CCCNc1ccc(-c2nc(-c3ccco3)no2)cc1[N+](=O)[O-],active: 0.169 µM,
N#C/C(=C\C=C\c1ccccc1[N+](=O)[O-])C(=O)NC1CCCCC1,,inactive: -27.7%
CN(C)CCN(C(=O)/C=C/c1cccs1)c1nc2ccc(F)cc2s1,"inconclusive: 30.1 µM [inhibitor, single point]",
O=c1cc(-c2cccc(Br)c2)oc2cccc(O)c12,,inactive: -4.58%
c1ccc(N=NC2=NN(c3ccccc3)CS2)cc1,active: 2.13 µM,
COc1ccc([N+](=O)[O-])cc1NC(=O)CSc1nccc(C)n1,"inconclusive: 21.3 µM [inhibitor, single point]",
CCOC(=O)c1ccccc1N/C=C/C(=O)c1ccccc1,active: 10.7 µM,
C#CCSc1nc(-c2ccccc2)cc(C(F)(F)F)c1C#N,"inconclusive: 26.9 µM [inhibitor, single point]",
O=C1COc2ccc(C(=O)COC(=O)/C=C/c3ccco3)cc2N1,"inconclusive: 33.8 µM [inhibitor, single point]",
C(=N/n1c2ccccc2c2ccccc21)/c1ccco1,"inconclusive: 37.9 µM [inhibitor, single point]",
O=[N+]([O-])c1cc2c(cc1Br)-c1ccccc1C2,"inconclusive: 19 µM [inhibitor, partial curve]",
CSC1=NC(C)(C)C=C(/C=C/c2ccc(Cl)cc2)N1,"inconclusive: 12 µM [inhibitor, partial curve]",
O=c1c2ccccc2oc2cc(Br)ccc12,"inconclusive: 5.36 µM [inhibitor, partial curve]",
Nc1c(Cl)cc(N=Nc2ccccc2)cc1Cl,"inconclusive: 2.39 µM [inhibitor, full curve]",
Clc1ccc(/C=N/Nc2nnc(Cl)c3ccccc23)cc1,active: 0.338 µM,
O=C(CSc1nccc(-c2cccs2)n1)Nc1cccc(Cl)c1Cl,,inactive: -6.99%
COc1cccc(NC(=O)c2cc(Cl)nnc2Cl)c1,,inactive: -19.3%
COc1ccc(C)c2sc(NC(=O)CCS(=O)(=O)c3ccccc3)nc12,"inconclusive: 15.1 µM [inhibitor, partial curve]",
Cc1c(CN(C)C)c2c(n1C)C(=O)c1ccc(Br)cc1-2,,inactive: 7.53%
CC(=O)Nc1cc2oc3ccccc3c2cc1[N+](=O)[O-],"inconclusive: 8.49 µM [inhibitor, partial curve]",
O=C(Nc1nc2c(Cl)cccc2s1)c1ccc([N+](=O)[O-])o1,active: 10.7 µM,
O=C(Cn1cnc2scc(-c3cccc([N+](=O)[O-])c3)c2c1=O)NCc1ccco1,"inconclusive: 37.9 µM [inhibitor, single point]",
O=c1[nH]c(/C=C/c2ccccc2[N+](=O)[O-])nc2ccccc12,"inconclusive: 3.38 µM [inhibitor, partial curve]",
O=C1c2ccccc2-c2onc3ccc(Oc4ccccc4)c1c23,"inconclusive: 8.49 µM [inhibitor, partial curve]",
COC(=O)C1=C(C)NC(=O)/C1=C\c1ccco1,"inconclusive: 16.9 µM [inhibitor, partial curve]",
O=[N+]([O-])c1ccc(N2CCN(Cc3ccccc3)CC2)c2c1no[n+]2[O-],"inconclusive: 23.9 µM [inhibitor, single point]",

SMILES,Potency,"activity, negative = inhibition"
CC(C)(C)/C(O)=C/c1nc2cc(Cl)ccc2oc1=O,,inactive: 3.24%
Nc1nc(-c2ccccc2)cc(-c2ccccc2O)n1,"inconclusive: 13.5 µM [inhibitor, partial curve]",
CNc1ccccc(C(=O)/C=C/c2ccccc2OC)c1=O,active: 5.36 µM,
O=C(NC(=S)Nc1ccccc1O)c1ccccc1Cl,active: 8.49 µM,
O=C1c2ccccc2C(=O)c2c(Nc3ccc(CCO)cc3)ccc(O)c21,"inconclusive: 15.1 µM [inhibitor, partial curve]",
CCOC(=O)N/N=C\C=C\c1ccco1,"inconclusive: 21.3 µM [inhibitor, single point]",
COc1cc(C=C2Cc3ccccc3C2=O)cc(OC)c1OC,"inconclusive: 15.1 µM [inhibitor, partial curve]",
O=c1nc2c(-c3ccccc3F)n[nH]n2c2ccccc12,active: 7.57 µM,
O=C(CCCN1C(=O)/C(=C\c2cccc(Br)c2)SC1=S)Nc1cccnc1,"inconclusive: 10.7 µM [inhibitor, partial curve]",
Cc1cccc(NC(=O)Nc2ccc(Br)cc2)n1,"inconclusive: 0.757 µM [inhibitor, full curve]",
O=C1C(=Cc2ccccc2[N+](=O)[O-])Cc2ccccc21,"inconclusive: 5.36 µM [inhibitor, partial curve]",
O=C(Nc1ccc(Cl)c(S(=O)(=O)N2CCOCC2)c1)c1cccs1,"inconclusive: 37.9 µM [inhibitor, single point]",
O=C(N/N=C/c1ccsc1)c1ccc2ccccc2n1,active: 10.7 µM,
CC(=O)Nc1cc(-c2ccsc2)cn2c(-c3ccc(F)cc3)cnc12,"inconclusive: 23.9 µM [inhibitor, single point]",
c1ccc(-c2nc3c4ccccc4ccn3c2Cc2ccsc2)cc1,active: 1.51 µM,
Cc1nc(NC(=O)/C=C/c2ccccc2)n[nH]1,"inconclusive: 12 µM [inhibitor, partial curve]",
Cc1ccsc1/C=N/N=C1\C(=O)Nc2ccccc21,active: 3.38 µM,
O=[N+]([O-])c1ccc(Cl)cc1C=NNc1ccccn1,,inactive: -18.3%
Cc1c(Cl)cccc1NC(=S)NC(=O)c1ccccc1,"inconclusive: 8.49 µM [inhibitor, partial curve]",
O=C(COc1cccnc1[N+](=O)[O-])Nc1cccc2ccccc12,,inactive: 2.44%
CC(=O)c1sc2nc(-c3cccs3)cc(C(F)(F)F)c2c1N,"inconclusive: 37.9 µM [inhibitor, single point]",
O=C(N/N=C/C=C/c1ccco1)c1cccc([N+](=O)[O-])c1,,inactive: -19.3%
Cc1cc(NC(=O)CN2CCC(O)CC2)nc2c1c(=O)oc1ccccc12,"inconclusive: 30.1 µM [inhibitor, single point]",
CS(=O)(=O)N1CCN(c2ccccc2NC(=O)c2ccc([N+](=O)[O-])o2)CC1,,inactive: 3.04%
O=C(COC(=O)c1cc2ccccc2cc1O)Nc1ccccc1F,"inconclusive: 30.1 µM [inhibitor, single point]",
Cc1cccc(N=C2NC(=O)S/C2=C\c2ccco2)c1,"inconclusive: 12 µM [inhibitor, partial curve]",

SMILES,Potency,"activity, negative = inhibition"
N#C/C(=C\c1ccccc1[N+](=O)[O-])c1nc(C2CC2)cs1,"inconclusive: 21.3 µM [inhibitor, single point]",
Cc1ccc(-n2nc3c([n+]2[O-])CCc2c-3no[n+]2[O-])cc1,,inactive: -5.82%
COc1ccc(COc2ccsc2C(=O)Nc2ccc(Cl)cc2)cc1,"inconclusive: 10.7 µM [inhibitor, partial curve]",
COc1ccccc1C(=O)COC(=O)c1cccs1,active: 2.69 µM,
Cc1ccc(CC2S/C(=N/N=C/c3ccco3)NC2=O)cc1 (configuration not stated),"inconclusive: 13.5 µM [inhibitor, partial curve]",
S=c1[nH]nc(-c2ccco2)n1/N=C/c1cccc(Cl)c1Cl,"inconclusive: 5.36 µM [inhibitor, partial curve]",
Cc1ccc(NC(=O)c2cc(=O)c3ccccc3o2)cc1,"inconclusive: 21.3 µM [inhibitor, single point]",
CN(C)CCCn1c2c3ccccc3ccc2c2oc(=O)c3ccccc3c21,"inconclusive: 33.8 µM [inhibitor, single point]",
O=c1[nH]c(/C(Cl)=C/c2cc(Cl)ccc2O)nc2cc(Cl)ccc12,"inconclusive: 37.9 µM [inhibitor, single point]",
O=C(N/N=C/c1ccc(-c2cccc([N+](=O)[O-])c2)o1)c1cccs1,"inconclusive: 16.9 µM [inhibitor, partial curve]",
O=C(CSc1nc2cc(Cl)ccc2s1)c1ccco1,"inconclusive: 23.9 µM [inhibitor, single point]",
c1ccc(-c2noc(-c3cccnc3)n2)cc1,active: 3.01 µM,
Cc1cc(C)n2nc(/C(C#N)=C/c3ccccn3)c(C#N)c2n1,"inconclusive: 13.5 µM [inhibitor, partial curve]",
CCn1c(=O)c([N+](=O)[O-])c(NCc2ccco2)c2ccccc21,,inactive: 5.01%
Brc1cc(Br)c2nc(-c3cccs3)ccc2c1,active: 3.01 µM,
O=C(CCN1C(=O)/C(=C/c2ccccc2)SC1=S)N1CCCCCC1,"inconclusive: 13.5 µM [inhibitor, partial curve]",
CCOC(=O)c1cnc(-c2ccccc2)nc1-c1ccccc1,,inactive: -24.4%
Cc1nc(C)c(C(=O)N/N=C/c2ccco2)s1,,inactive: -9.17%
COc1ccccc1NC(=O)/C=C\c1ccco1,active: 10.7 µM,
CC(/C=C/c1ccco1)=N\NC(=O)CNc1ccc2ccccc2c1,active: 15.1 µM,
N#C/C(=C\c1cccc([N+](=O)[O-])c1)c1ccccn1,"inconclusive: 30.1 µM [inhibitor, single point]",
COc1cccc(C(=O)Oc2ccccc2/C=C\C(=O)c2cc3ccccc3o2)c1,active: 1.51 µM,
Cc1nc(-c2ccccn2)sc1C(=O)Nc1ccc(F)cc1,"inconclusive: 26.9 µM [inhibitor, single point]",
NC(=O)c1oc2ccccc2c1NC(=O)c1ccccc1,"inconclusive: 21.3 µM [inhibitor, single point]",
O=C(NC(=S)Nc1cc([N+](=O)[O-])ccc1Cl)c1ccccc1,"inconclusive: 13.5 µM [inhibitor, partial curve]",
